Source: PubChem BioAssay AID1240 (Sanford-Burnham Center for Chemical Genomics, 2008)
The campaign covered roughly 50,000 compounds. About 800 (1.6%) showed an effect of 50% or more. The list shows a part of the results.

Each compound was assayed against Bcl-2-like protein 10 (Homo sapiens) (UniProt Q9HD36) (assay: TR3 peptide-Bcl-B binding displacers, biochemical primary FP assay, phenotype converters (AID 1240;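 note: 0% = Bcl-B with tracer peptide and DMSO and 100% = tracer peptide lacking Bcl-B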)). Conditions: GST-Bcl-B / FITC-TR3 peptide fluorescence polarization; stronger effect = higher value; compound at 3.75 mg/L.
Sequence of UniProt Q9HD36 (Q9HD36 whole entry, looked up): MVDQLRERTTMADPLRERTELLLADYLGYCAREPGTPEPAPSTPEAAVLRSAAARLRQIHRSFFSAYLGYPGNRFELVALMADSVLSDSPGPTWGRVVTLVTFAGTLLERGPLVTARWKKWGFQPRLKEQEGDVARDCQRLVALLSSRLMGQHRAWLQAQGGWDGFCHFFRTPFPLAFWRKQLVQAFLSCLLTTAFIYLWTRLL

Structure (SMILES)	displacement [%]
O=C1c2cccc3cccc(c23)C(=O)N1/N=C/c1cccc([N+](=O)[O-])c1	11
CC(C)=C1C2C=CC1C1C(=O)N(c3cc(C(F)(F)F)ccc3Cl)C(=O)C21 (centres undefined)	16
O=C(Cc1ccccc1)Nc1ccc(-c2nc3ccccc3[nH]2)cc1	-0.6
O=C(Nc1ccc2ccccc2c1)C1CC(=O)N(c2ccccc2)C1 (centres undefined)	3.8
Cc1ccccc1OCC(=O)N/N=C\C=N\NC(=O)COc1ccccc1C	-2.5
O=C(Nc1ccccc1)c1c(NC(=S)Nc2ccccc2)sc2c1CCCC2	3.9
O=C(CSc1nc(O)c(C(c2ccccc2)c2ccccc2)c(=O)[nH]1)N1CCOCC1	11.6
O=C(CN(c1cccc(Br)c1)S(=O)(=O)c1ccccc1)NCCc1ccccc1	7.1
CC1(C)OC(=O)C(=C2CCCN2)C(=O)O1	-17.1
Cc1c(NC(=O)Nc2cccc(Cl)c2)c(=O)n(-c2ccccc2)n1C	1.2
C/C(=N/NC(=O)COc1ccc(C)cc1)c1ccc([N+](=O)[O-])cc1	1.6
O=C(Nc1cccc([N+](=O)[O-])c1)c1cccc(F)c1	-8.1
Cc1cc(NC(=O)c2ccc(Cl)cc2)n(-c2ccccc2)n1	-5.6
COc1cccc(OC)c1C(=O)NNC(=O)c1ccc(F)cc1	-5.1
COc1ccccc1OCCCCCCN1CCCC1	11.1
COc1cc(NC(=O)c2cccc(Cl)c2)ccc1NC(=O)c1ccco1	8.1
CCCCSc1nc2sc3c(c2c(=O)n1-c1ccc(OC)cc1)CC(C)(C)OC3	-8.3
O=C(Nc1ccccc1O)c1ccc(C(=O)c2ccccc2)o1	-8.1
CCCCCC(=O)N1c2ccccc2NC2=C(C(=O)CC(c3ccc(OC)cc3)C2)C1c1ccco1 (centres undefined)	-3.9
COc1ccc(-c2cc(C(F)(F)F)n3nc(C(N)=O)c(Cl)c3n2)cc1OC	33.4
CC(C)(C)c1ccc(C(c2ccccc2)C2([N+](=O)[O-])C(=O)c3ccccc3C2=O)cc1 (centres undefined)	-8.6
O=C(CP(=O)(c1ccccc1)c1ccccc1)c1ccccc1	14.4
CCCN(CCC)C(=O)c1cccc([N+](=O)[O-])c1C	4.8

Structure (SMILES)	displacement [%]
COCCCNC(=O)CN(c1ccc(C)cc1)S(C)(=O)=O	-1.5
Cc1onc(-c2ccccc2)c1C(=O)Nc1cccc(Cl)c1	-2.5
Oc1c(/C=N/Nc2nc3ccccc3s2)sc2ccccc12	-8.6
C=CCN1C(=O)/C(=C\c2ccc(OCc3ccc(Br)cc3)c(OC)c2)SC1=S	-11.3
O=C(Nc1ccc(Cl)c(Cl)c1)Nc1nnc(-c2ccc([N+](=O)[O-])cc2)s1	14.3
Cc1ccc(-n2ncnc2-c2ccc(Cl)cc2)cc1Cl	-10.1
COc1ccc(OCC(=O)N2c3ccccc3Sc3ccc(Cl)cc32)cc1	2.5
Cc1ccc(N2CC(C(=O)Nc3c(C)cc(C)cc3C)CC2=O)cc1 (centres undefined)	5.3
CCOC(=O)N1CCN(C(=O)c2ccc(C#Cc3ccccc3)cc2)CC1	0.4
Cc1ccc(NC(=O)c2c(C(=O)O)cccc2[N+](=O)[O-])c(Br)c1	15.4
COc1ccc(C2/C(=C(/O)c3ccccc3)C(=O)C(=O)N2Cc2ccccc2)c(OC)c1 (centres undefined)	-18.5
O=C(CN1C(=O)c2cccc([N+](=O)[O-])c2C1=O)Nc1nc(-c2ccccc2)cs1	-0.3
N#Cc1c(NC(=O)CN2C(=O)c3cccc4cccc(c34)C2=O)sc2c1CCCC2	-6.7
CCOc1ccc(NC(=O)c2c(NC(=O)C(C)(C)C)sc3c2CCC3)cc1	-9.5
Cc1cc(=O)oc2cc3occ(-c4ccccc4)c3cc12	-1
COc1cc(OC)cc(-c2nc3ccc(C)cc3c(=O)o2)c1	-17.8
COc1ccc(C2CC(C(F)(F)F)n3nc(C(=O)Nc4ccc5c(c4)OCO5)cc3N2)cc1 (centres undefined)	5.6
COc1cc(C(=O)NCc2ccc(F)cc2)cc(OC)c1OC	-7.6
Cc1ccc(Cl)cc1NC(=O)C1CCCCC1C(=O)O (centres undefined)	7
COC(=O)CCCC[C@H]1SC[C@H]2NC(=O)NC21O (some centres undefined)	6.6
CCOc1ccccc1NC(=O)c1ccc([N+](=O)[O-])cc1	11
O=C(Nc1cc(C(F)(F)F)ccc1N1CCOCC1)c1ccc(Cl)c([N+](=O)[O-])c1	-3.7
CCOc1cc(/C=C2\C(=O)NN(c3ccccc3)C2=O)cc(Cl)c1O	-161

Structure (SMILES)	displacement [%]
CC1CC(O)N(C(=O)c2ccccc2O)N1C (centres undefined)	9.3
Fc1cccc(Cl)c1-c1nnc2ccc3ccccc3n12	7.1
O=C1c2ccc(-c3nc4ccccc4c(=O)o3)cc2C(=O)N1c1ccccc1[N+](=O)[O-]	0.1
CC(C)C(C#CC(O)(c1ccccc1)c1ccccc1)N(C)C (centres undefined)	3.6
CC(=O)NC(NC(C)=O)c1ccc(F)cc1	-2.4
O=S(=O)(Nc1cccnc1)c1ccc(F)cc1	11.4
O=C1CCCC2=C1C(c1ccc3c(c1)OCO3)Nc1ccc3ccccc3c12 (centres undefined)	9.5
Cc1ccc2oc(C(=O)Nc3ccc(Cl)cc3Cl)c(C)c2c1	-5.3
N/C(=N\OC(=O)Cc1ccc(Cl)cc1)c1cccc([N+](=O)[O-])c1	-1.7
Cc1cc(C)nc(SCc2ccccc2Cl)n1	2
O=C1C2=C(C(c3ccccc3)=NCCN2)C(c2ccc(O)cc2)N1c1ccccc1 (centres undefined)	4.4
CN(C)c1ccc(Nc2nc(-c3cccnc3)cs2)cc1	9.6
Cc1ccc(N(Cc2ccc(C(=O)NCc3ccco3)cc2)S(C)(=O)=O)cc1C	-10.7
CCOc1cc(/C=C2/SC(=S)NC2=O)ccc1OCc1ccc(Cl)c(Cl)c1	2.3
CCOc1cc(/C=c2\sc3nc4ccccc4n3c2=O)ccc1OC(C)c1ccccc1 (centres undefined)	37.5
O=C(NCC1CCCO1)NC1CCCCC1 (centres undefined)	-2.5
CCc1nnc(NC(=O)c2ccc3c(c2)OCCO3)s1	6.6
CC1=C(C(=O)Nc2cc(Cl)ccc2C)C(c2ccccc2Cl)NC(=O)N1 (centres undefined)	13.6
COc1ccc(N(CC(=O)Nc2ccc(C)cc2)S(C)(=O)=O)cc1Cl	5.1
COc1ccc(/C=C/C(=O)Nc2ccccc2C(F)(F)F)cc1OC	-4.5
COc1ccc(C2Nc3ccccc3C(=O)N2Cc2ccco2)cc1CSc1nc2ccccc2s1 (centres undefined)	11.9
COc1ccc(C2C(C#N)=C(N)OC3=C2C(=O)CCC3)cc1 (centres undefined)	3
COc1cccc(OC)c1C(=O)Nc1cc(C(F)(F)F)ccc1Cl	-4
